According to the antibiotic and cytotoxicity screens of Wong et al. (2023):
Some of the results follow.

What follows are molecules tested on S. aureus RN4220 (assay: growth inhibition call (relative growth <= 0.2)). Settings: 50 µM.

Growth inhibition call, inactive:
C[N+]1(C)C[C@@H](O)C[C@H]1C(=O)O
COCC#Cc1cnc2c(c1)C(=O)N([C@H](C)CO)C[C@H](C)[C@H](CN(C)C(C)=O)O2
COc1ccccc1C#Cc1cnc2c(c1)C(=O)N([C@H](C)CO)C[C@@H](C)[C@@H](CN(C)C(=O)CN(C)C)O2
Cc1noc(C)c1NC(=O)Nc1ccc2c(c1)C(=O)N([C@H](C)CO)C[C@H](C)[C@H](CN(C)C(=O)Nc1cccc3ccccc13)O2
CN1C(=O)c2cc(NC(=O)c3ccno3)ccc2OC[C@H]2O[C@@H](CC(=O)NC3Cc4ccccc4C3)CC[C@@H]21
C[C@@H]1CN([C@@H](C)CO)C(=O)Cc2cc(NC(=O)NC3CCCCC3)ccc2O[C@@H]1CN(C)Cc1ccc(Oc2ccccc2)cc1
C[C@H]1CCCCO[C@@H](CN(C)Cc2ccccc2)[C@@H](C)CN([C@@H](C)CO)C(=O)c2cc(NS(=O)(=O)c3ccc(F)cc3)ccc2O1
C[C@H]1CCCCO[C@H](CN(C)S(C)(=O)=O)[C@@H](C)CN([C@@H](C)CO)C(=O)c2cc(NS(=O)(=O)c3ccccc3)ccc2O1
COc1ccc(C#Cc2cnc3c(c2)C(=O)N([C@H](C)CO)C[C@H](C)[C@H](CN(C)C(=O)CN(C)C)O3)cc1
CC(=O)N1Cc2cc(C(=O)NCc3cc(F)cc(F)c3)nc(-c3cccc(C4=CCCC4)c3)c2[C@@H]1CCO
C[C@H]1CN([C@@H](C)CO)C(=O)CCCn2cc(nn2)CO[C@@H]1CN(C)C(=O)c1ccc(N2CCN(C)CC2)cc1
CN(Cc1cc(Br)cc(Br)c1N)C1CCCCC1.Cl
COc1ccc(S(=O)(=O)N(C)C[C@H]2OCCCC[C@H](C)Oc3ccc(NC(=O)Nc4cccc5ccccc45)cc3C(=O)N([C@H](C)CO)C[C@@H]2C)cc1
C[C@@H]1CN([C@H](C)CO)C(=O)c2cc(NC(=O)Nc3ccc(F)cc3)ccc2O[C@H]1CN(C)S(=O)(=O)c1cn(C)cn1
C[C@@H]1CN([C@@H](C)CO)C(=O)Cc2cc(NC(=O)Nc3ccc(C(F)(F)F)cc3)ccc2O[C@@H]1CN(C)S(=O)(=O)c1ccc(Cl)cc1
COc1ccccc1NC(=O)N(C)C[C@@H]1Oc2ncc(C#CCN(C)C)cc2C(=O)N([C@@H](C)CO)C[C@H]1C
COc1ccc2c3c(n(c2c1)C)[C@@H](CO)N(C[C@]13CCN(CC1)S(=O)(=O)c1ccccc1)C(=O)c1cccnc1
Cc1ccc(S(=O)(=O)N(C)C[C@@H]2OCCCC[C@H](C)Oc3ccc(NC(=O)NC4CCCCC4)cc3C(=O)N([C@H](C)CO)C[C@H]2C)cc1
Cc1noc(C)c1NC(=O)N(C)C[C@@H]1OCCCC[C@@H](C)Oc2ccc(NC(=O)Nc3ccccc3)cc2C(=O)N([C@@H](C)CO)C[C@H]1C
Cn1ncc2c(NN3C(=O)CCC3=O)ncnc21
Cc1noc(C)c1NC(=O)N(C)C[C@H]1OCCCC[C@H](C)Oc2ccc(NC(=O)Nc3ccc(C(F)(F)F)cc3)cc2C(=O)N([C@H](C)CO)C[C@@H]1C
Cn1c(=O)c2c(nc(SCCNS(=O)(=O)c3ccccc3)n2C)n(C)c1=O
C=C(O)C(=O)O
C[C@@H]1CN([C@@H](C)CO)C(=O)c2cccc(NS(C)(=O)=O)c2O[C@H]1CN(C)C(=O)NC1CCCCC1
Cc1noc(C)c1S(=O)(=O)Nc1ccc2c(c1)C(=O)N([C@@H](C)CO)C[C@@H](C)[C@@H](CN(C)Cc1ccc(C(F)(F)F)cc1)OCCCC[C@H](C)O2
O=C(CCCCCCC(=O)Nc1ccc(C(=O)NCCOCCOCCNC(=O)c2ccc(NC(=O)CCCCCCC(=O)NO)cc2)cc1)NO
CC[C@@H](CO)NC(=O)c1ccc(N)cc1
C[C@@H]1CN([C@H](C)CO)C(=O)c2cc(NC(=O)CCCN(C)C)ccc2O[C@H]1CN(C)C(=O)NC1CCCCC1
C[C@H](CO)N1C[C@H](C)[C@H](CN(C)S(=O)(=O)c2cccs2)OCCCC[C@H](C)Oc2ccc(NC(=O)C3CCCCC3)cc2C1=O
O=c1cc(-c2ccccc2)[nH]c(=O)[nH]1
C[C@@H]1CN([C@@H](C)CO)S(=O)(=O)c2ccc(C#CCN(C)C)cc2O[C@H]1CN(C)S(C)(=O)=O
NCC1OC(OC2C(N)CC(N)C(OC3OC(CO)C(O)C(N)C3O)C2O)C(O)C(O)C1O.O=S(=O)(O)O (stereo not given)
N[C@@H](CC(=O)Nc1ccc(Cl)cc1)C(=O)O
CN1C(=O)[C@@H]2[C@@H]3C[C@H]4[C@@H](O[C@H]1[C@H]42)[C@H]3O
C[C@@H]1CN([C@H](C)CO)S(=O)(=O)c2ccc(C3=CCCC3)cc2O[C@H]1CN(C)C(=O)C1CCOCC1
CN(CC(=O)NC1CCCCC1)S(C)(=O)=O
C[C@@H]1CN([C@H](C)CO)C(=O)c2cc(-c3ccc(C(=O)N(C)C)cc3)cnc2O[C@H]1CN(C)C(=O)C1CC1
N=c1ccn2c(n1)O[C@H]1[C@H](O)[C@@H](CO)O[C@H]12
COc1ccccc1NC(=O)N(C)C[C@H]1Oc2cc(Br)ccc2S(=O)(=O)N([C@@H](C)CO)C[C@H]1C
Cc1noc(C)c1NC(=O)Nc1ccc2c(c1)C(=O)N([C@@H](C)CO)C[C@@H](C)[C@H](CN(C)Cc1ccc(Cl)c(Cl)c1)OCCCC[C@@H](C)O2
